Experimental findings from article PMC13586215 are described below.

Amino acid sequences for entries named in this document (tags omitted). A change or cut given only in a name is not applied to a line headed by its entry.
UniProt Q17RN3: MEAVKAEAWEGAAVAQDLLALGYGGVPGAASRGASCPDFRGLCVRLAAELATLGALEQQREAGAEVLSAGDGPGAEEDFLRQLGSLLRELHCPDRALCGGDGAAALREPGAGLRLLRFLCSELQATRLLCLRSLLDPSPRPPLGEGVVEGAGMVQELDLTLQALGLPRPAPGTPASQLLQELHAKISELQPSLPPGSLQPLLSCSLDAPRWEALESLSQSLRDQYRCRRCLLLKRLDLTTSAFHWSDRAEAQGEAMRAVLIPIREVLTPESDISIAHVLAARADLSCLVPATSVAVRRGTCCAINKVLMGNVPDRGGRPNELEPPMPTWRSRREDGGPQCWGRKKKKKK

What all share (assay): co-IP; anti-FLAG M2 magnetic beads with cleared lysates of doxycycline-induced HEK FITR stable lines; lysis buffer 30 mM HEPES pH 7.3, 100 mM KCl, 5 mM MgCl2, 1.0 % NP-40, 10 % glycerol; binding 2 h at 4 °C, five washes, elution with 3xFLAG peptide; western blot of input and eluate
The target in assay [1] is T1, FLAG-HA-RTCB (human) (UniProt Q9Y3I0).
T1 sequence: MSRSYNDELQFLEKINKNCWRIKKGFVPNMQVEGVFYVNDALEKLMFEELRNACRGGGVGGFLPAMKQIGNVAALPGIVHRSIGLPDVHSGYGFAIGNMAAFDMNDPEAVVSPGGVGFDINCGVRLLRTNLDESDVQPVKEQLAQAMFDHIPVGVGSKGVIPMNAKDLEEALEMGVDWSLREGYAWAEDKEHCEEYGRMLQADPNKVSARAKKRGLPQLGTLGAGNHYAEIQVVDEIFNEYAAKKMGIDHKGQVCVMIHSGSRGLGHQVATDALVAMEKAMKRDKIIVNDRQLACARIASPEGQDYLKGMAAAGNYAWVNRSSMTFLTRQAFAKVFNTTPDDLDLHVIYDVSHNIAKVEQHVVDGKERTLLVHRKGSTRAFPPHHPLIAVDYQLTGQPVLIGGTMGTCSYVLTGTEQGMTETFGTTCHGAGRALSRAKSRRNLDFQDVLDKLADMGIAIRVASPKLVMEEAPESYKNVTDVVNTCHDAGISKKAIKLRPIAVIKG

For assay [2], the target named is FLAG-HA-tagged FAM98A(1-335) (human) (UniProt Q8NCA5).
Assay [3] has as its target FLAG-HA-tagged FAM98C (human) (UniProt Q17RN3).
Assay [4] concerns the target N-terminally FLAG-HA-tagged, full-length FAM98A (human) (UniProt Q8NCA5).

Results are given in words; binding and its absence hold for the method and conditions named. Binding seen in cells or lysates may run through a third protein. Some results given as binding are weak or reduced against the parent protein; the word gives no strength. For some assays here: Sequences can lack the tags named with a protein.

As for “FAM98C (endogenous) (from UniProt Q17RN3-1 1-349)”, the binding result in assay [1] was “binds”.

Consider “FAM98A (endogenous) (from UniProt Q8NCA5 1-518)”, for which the binding result in assay [1] is recorded as “binds”.

B1: Ashwin (endogenous) (protein, UniProt Q9BVC5-1 1-232)
chain: MAGDVGGRSCTDSELLLHPELLSQEFLLLTLEQKNIAVETDVRVNKDSLTDLYVQHAIPLPQRDLPKNRWGKMMEKKREQHEIKNETKRSSTVDGLRKRPLIVFDGSSTSTSIKVKKTENGDNDRLKPPPQASFTSNAFRKLSNSSSSVSPLILSSNLPVNNKTEHNNNDAKQNHDLTHRKSPSGPVKSPPLSPVGTTPVKLKRAAPKEEAEAMNNLKPPQAKRKIQHVTWP
Turning to B1, the binding entry in assay [2], in assay [3] and in assay [4] was “no binding” throughout.

B2: DDX1 (endogenous) (enzyme, UniProt Q92499-1 1-740)
chain: MAAFSEMGVMPEIAQAVEEMDWLLPTDIQAESIPLILGGGDVLMAAETGSGKTGAFSIPVIQIVYETLKDQQEGKKGKTTIKTGASVLNKWQMNPYDRGSAFAIGSDGLCCQSREVKEWHGCRATKGLMKGKHYYEVSCHDQGLCRVGWSTMQASLDLGTDKFGFGFGGTGKKSHNKQFDNYGEEFTMHDTIGCYLDIDKGHVKFSKNGKDLGLAFEIPPHMKNQALFPACVLKNAELKFNFGEEEFKFPPKDGFVALSKAPDGYIVKSQHSGNAQVTQTKFLPNAPKALIVEPSRELAEQTLNNIKQFKKYIDNPKLRELLIIGGVAARDQLSVLENGVDIVVGTPGRLDDLVSTGKLNLSQVRFLVLDEADGLLSQGYSDFINRMHNQIPQVTSDGKRLQVIVCSATLHSFDVKKLSEKIMHFPTWVDLKGEDSVPDTVHHVVVPVNPKTDRLWERLGKSHIRTDDVHAKDNTRPGANSPEMWSEAIKILKGEYAVRAIKEHKMDQAIIFCRTKIDCDNLEQYFIQQGGGPDKKGHQFSCVCLHGDRKPHERKQNLERFKKGDVRFLICTDVAARGIDIHGVPYVINVTLPDEKQNYVHRIGRVGRAERMGLAISLVATEKEKVWYHVCSSRGKGCYNTRLKEDGGCTIWYNEMQLLSEIEEHLNCTISQVEPDIKVPVDEFDGKVTYGQKRAAGGGSYKGHVDILAPTVQELAALEKEAQTSFLHLGYLPNQLFRTF
For B2, the binding result in assay [2], in assay [3] and in assay [4] was “binds” throughout.

B3: CGI-99 (endogenous) (protein, UniProt Q9Y224 1-244)
chain: MFRRKLTALDYHNPAGFNCKDETEFRNFIVWLEDQKIRHYKIEDRGNLRNIHSSDWPKFFEKYLRDVNCPFKIQDRQEAIDWLLGLAVRLEYGDNAEKYKDLVPDNSKTADNATKNAEPLINLDVNNPDFKAGVMALANLLQIQRHDDYLVMLKAIRILVQERLTQDAVAKANQTKEGLPVALDKHILGFDTGDAVLNEAAQILRLLHIEELRELQTKINEAIVAVQAIIADPKTDHRLGKVGR
For B3, the binding result in assay [2], in assay [3] and in assay [4] was “binds” each time.

B4: RTCB (endogenous) (enzyme, UniProt Q9Y3I0 1-505)
chain: MSRSYNDELQFLEKINKNCWRIKKGFVPNMQVEGVFYVNDALEKLMFEELRNACRGGGVGGFLPAMKQIGNVAALPGIVHRSIGLPDVHSGYGFAIGNMAAFDMNDPEAVVSPGGVGFDINCGVRLLRTNLDESDVQPVKEQLAQAMFDHIPVGVGSKGVIPMNAKDLEEALEMGVDWSLREGYAWAEDKEHCEEYGRMLQADPNKVSARAKKRGLPQLGTLGAGNHYAEIQVVDEIFNEYAAKKMGIDHKGQVCVMIHSGSRGLGHQVATDALVAMEKAMKRDKIIVNDRQLACARIASPEGQDYLKGMAAAGNYAWVNRSSMTFLTRQAFAKVFNTTPDDLDLHVIYDVSHNIAKVEQHVVDGKERTLLVHRKGSTRAFPPHHPLIAVDYQLTGQPVLIGGTMGTCSYVLTGTEQGMTETFGTTCHGAGRALSRAKSRRNLDFQDVLDKLADMGIAIRVASPKLVMEEAPESYKNVTDVVNTCHDAGISKKAIKLRPIAVIKG
On to B4, for which the binding result in assay [2], in assay [3] and in assay [4] was “binds” each time.
